In all, about 110,000 compounds went through this assay and about 230 (0.21%) showed an effect of 50% or more. The list shows a part of the results.
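Further: 30 min substrate incubation versus DMSO and 10 µM JCP410 controls.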

Chain of DPAP1 (Q8IIJ9 whole entry, looked up): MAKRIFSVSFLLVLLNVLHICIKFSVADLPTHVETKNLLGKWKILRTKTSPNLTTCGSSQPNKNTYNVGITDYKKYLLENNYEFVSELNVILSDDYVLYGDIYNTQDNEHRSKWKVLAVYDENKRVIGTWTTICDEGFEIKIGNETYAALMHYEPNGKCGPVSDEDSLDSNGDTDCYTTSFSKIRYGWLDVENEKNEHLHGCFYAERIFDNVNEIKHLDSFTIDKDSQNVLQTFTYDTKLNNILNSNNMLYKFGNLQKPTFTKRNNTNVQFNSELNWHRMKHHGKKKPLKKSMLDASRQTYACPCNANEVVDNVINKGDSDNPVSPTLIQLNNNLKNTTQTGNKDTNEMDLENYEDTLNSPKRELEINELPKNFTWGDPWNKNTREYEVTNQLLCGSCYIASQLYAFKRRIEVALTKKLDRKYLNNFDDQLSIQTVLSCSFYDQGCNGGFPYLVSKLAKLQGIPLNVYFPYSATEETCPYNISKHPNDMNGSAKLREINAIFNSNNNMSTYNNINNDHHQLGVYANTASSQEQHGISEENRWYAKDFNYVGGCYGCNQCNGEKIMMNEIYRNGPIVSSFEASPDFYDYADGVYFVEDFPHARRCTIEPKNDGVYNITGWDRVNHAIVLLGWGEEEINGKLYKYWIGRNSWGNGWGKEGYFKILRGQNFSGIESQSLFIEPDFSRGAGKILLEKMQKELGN

This test has as its target DPAP1 (Plasmodium falciparum, UniProt Q8IIJ9). The test can be described thus: primary screen, percent inhibition; read by cleavage of a fluorogenic dipeptide substrate; higher = more effect of the substance. Set-up: species or system P. falciparum D10 trophozoite lysates; single well.
In the case of `COc1ccc(OC)c(CN(C)CCN(C)C)c1`, the “% Inhibition @ 10 uM” value is on record as -2.6%. Next, `O=C(NCCCN1CCc2ccccc2C1)c1csc2c1CCCCC2`: 8.05%; `CC(=O)c1c(C(=O)c2ccccc2)sc2ccccc12`: -7.61%. As for `C=CCC(CC=C)(NC(=O)c1ccc(F)cc1)c1ccccc1`, the figure is 3.34%. Next, `O=C(Cn1nc(Cc2ccncc2)c2ccccc2c1=O)N1CCN(C(=O)c2ccco2)CC1`: -1.21%; `CN1CCN(c2ccc([N+](=O)[O-])cc2Cl)CC1`: -2.44%. As to `CCCCNc1nc2c(c(=O)n(C)c(=O)n2C)n1C`, the “% Inhibition @ 10 uM” value was determined as 1.39%.

As for `CC(C)c1ccc2oc(-c3ccc(N)cc3)nc2c1`, the “% Inhibition @ 10 uM” value was -0.0925%. As for `CC(NC(=O)CN1CCOCC1)C1CC1` (stereo not shown), the figure is -1.56%; as for `COC(=O)CCC(=O)c1ccc(Br)s1`, -3.82%; as for `Cc1cccn2c(=O)c3cc(C(=O)NCCc4ccccc4)c(=N)n(CCCn4ccnc4)c3nc12`, -1.92%. Next, `Cc1ccccc1N1C(=O)CC(=O)NC1=S`: -0.414%; `CCC(C)Sc1nc(O)c(C(C)CC)c(O)n1` (stereo not shown): -5.84%; `O=C(Nc1nc2nc(-c3ccccc3)cc(O)n2n1)c1ccco1`: -1.31%. Next, `COc1cccc(C2(O)CCS(=O)CC2CN(C)C)c1` (stereo not shown): -4.12%. With `Cc1cc(C)c(Cc2c(C)cc(C)c(/C=N/O)c2C)c(C)c1/C=N/O`, the “% Inhibition @ 10 uM” value was -3.38%.

Turning to `COc1cccc(-c2nnc3sc(NC(=O)COc4ccccc4)nn23)c1`, the “% Inhibition @ 10 uM” value is on record as 3.64%. Consider `Cc1ccc(C2C(C#N)=C(N)Oc3c2c(O)nc2c3sc3nc(C)cc(C)c32)cc1` (stereo not shown), for which the “% Inhibition @ 10 uM” value is -1.84%. For `CC(C(=O)NCCN(C)C)n1c2ccccc2c2cnn(C)c(=O)c21` (stereo not shown), the “% Inhibition @ 10 uM” value is recorded as -0.281%.

For `CCOC(=O)N1CCC(N2CCN(S(=O)(=O)c3ccccc3)CC2)CC1`, the “% Inhibition @ 10 uM” value is -1.6%. As for `COC(=O)c1ccc(NC(=O)c2ccc(C(C)(C)C)cc2)cc1`, the figure is -2.5%; as for `c1ccc(CSc2nncn3c2cc2sccc23)nc1`, -11.9%. Take `O=C(O)[C@H](Cc1ccccc1)N1C(=O)c2ccncc2C1=O`: the “% Inhibition @ 10 uM” value was -2.88%. Consider `CCOC(=O)N1CCN(S(=O)(=O)N2CCCC(C(=O)NCc3ccc(C)cc3)C2)CC1` (stereo not shown), for which the “% Inhibition @ 10 uM” value was determined as 3.66%.

As for `CC(C)c1nnc(N2C(=O)c3oc4ccccc4c(=O)c3C2c2cccnc2)s1` (stereo not shown), the “% Inhibition @ 10 uM” value worked out at 1.19%.

Regarding `CCOC(=O)C1=C(CC)OC(N)=C(C#N)C1c1ccoc1` (stereo not shown), the “% Inhibition @ 10 uM” value is 27.5%. As for `FC(F)(F)c1ccc(Cl)c(N2N=C(/C=C/c3cccs3)CC2c2cccs2)c1` (stereo not shown), the figure is 3.32%; as for `O=C(O)C1CCN(S(=O)(=O)c2ccc(-c3nn[nH]n3)cc2)CC1`, -2.84%.

On to `C=C(C)Cn1c(N2CCN(CCO)CC2)nc2c1c(=O)n(C)c(=O)n2C`, for which the “% Inhibition @ 10 uM” value was 4%.

On to `O=C(NCc1ccc2c(c1)OCO2)c1ccc(Oc2ccccc2)cc1`, for which the “% Inhibition @ 10 uM” value turned out to be 5.39%. On to `Cc1ccc(-n2nc3c(c2NC(=O)C2CC2)CS(=O)(=O)C3)cc1`, for which the “% Inhibition @ 10 uM” value stood at 2.5%. Next, `O[C@H]1CC[C@H](NC2CCCCCCC2)CC1`: 0.217%; `CC(C)OCCCNC(=O)c1ccc(CSc2nc3ccncc3n2Cc2ccccc2F)cc1`: -3.34%; `COc1ccc(S(=O)(=O)Nc2cccc(-c3cn4ccsc4n3)c2)cc1OC`: 3.99%. Take `CCC(C)n1nc(O)c2c1NC(=O)CSC2c1ccc(C)cc1` (stereo not shown): the “% Inhibition @ 10 uM” value was -0.666%. Next, `Cc1ccccc1/C=C1\C(=O)NC(=S)N(c2ccc(Cl)cc2)C1=O`: -0.0804%; `CN(C)C1CS(=O)(=O)CC1N(C)C` (stereo not shown): -11.1%; `COc1ccc(S(=O)(=O)Nc2cccc(C(C)=O)c2)c(Cl)c1Cl`: -2.83%. Regarding `Cc1ccc(NC(=O)CSC2=NC(=O)CC(c3ccccc3)N2)cc1` (stereo not shown), the “% Inhibition @ 10 uM” value was -3.9%.

Turning to `COc1ccc(C2=C(C)C(=O)OC(c3ccccc3)O2)cc1` (stereo not shown), the “% Inhibition @ 10 uM” value is listed as -4.91%.

As to `O=c1oc2ccc(NS(=O)(=O)c3ccc(F)cc3)cc2s1`, the “% Inhibition @ 10 uM” value came to 0.889%. As for `O=C(Cn1ncc2c3ccccc3n(Cc3ccccc3)c2c1=O)N1CCC2(CC1)OCCO2`, the figure is 0.137%; as for `CC(C)(C)c1ccccc1OCC(=O)NCc1ccco1`, -0.69%; as for `Nc1nnc(SCC(=O)NC(c2ccccc2)c2ccccc2)s1`, 0.587%. As for `CN1CCC(O)(c2ccccc2)CC1`, the figure is -4.35%; as for `CCCC(O)(c1ccc(OC)cc1)C(CN(C)C)c1ccccc1` (stereo not shown), -3.93%; as for `CCOc1ccc(S(=O)(=O)Nc2ccc(Cl)cn2)c(C)c1C`, -3.33%. Take `O=c1c(N2CCOCC2)nsn1Cc1ccccc1`: the “% Inhibition @ 10 uM” value is recorded as -3.39%. Next, `O=C(O)CSc1c2c(nc3cc(C(=O)N4CCN(C5CCCCC5)CC4)ccc13)CCC2`: 2.74%; `Cc1nn(-c2ccc(F)cc2)c(O)c1/C=N/c1ccccc1O`: -0.759%.

On to `c1ccc(CCCSc2nccn2Cc2ccccc2)cc1`, for which the “% Inhibition @ 10 uM” value is given as -0.239%.

On to `CCC(Sc1ncccc1C(=O)OC(C)C)C(=O)NCc1ccco1` (stereo not shown), for which the “% Inhibition @ 10 uM” value was determined as 3.66%. As for `COc1ccc(CNC2C3CC4CC(C3)CC2C4)c2ccccc12` (stereo not shown), the figure is -6.08%. Next, `CC(C)Oc1ccc(CNC(=O)C2CCCN(S(=O)(=O)N3CCC4(CC3)OCCO4)C2)cc1` (stereo not shown): -8.18%.

Take `Cc1cc(N2CCC(C(=O)Nc3nccs3)CC2)n2nc(C)c(-c3ccc(Cl)cc3)c2n1`: the “% Inhibition @ 10 uM” value is listed as -7.53%. Take `COc1ccc2ccccc2c1CN1CCCC1CO` (stereo not shown): the “% Inhibition @ 10 uM” value was -1.97%. As for `CCn1cc(C(=O)O)c(=O)c([N+](=O)[O-])c1-c1ccccc1`, the figure is -2.81%; as for `CN1C(=O)C(=Cc2cn(Cc3ccc(Cl)cc3)c3ccccc23)C(=O)N(C)C1=O`, 23.7%.

As to `CCN(CC)c1nc2c(C)cccn2c(=O)c1C=C1C(=O)NC(=O)NC1=O`, the “% Inhibition @ 10 uM” value is recorded as -0.339%. Consider `CC1CCCC(C)N1CCCNC(=O)C1c2ccccc2C(=O)N1CCc1ccc(Cl)cc1` (stereo not shown), for which the “% Inhibition @ 10 uM” value is on record as 0.387%. As for `CCOc1ccccc1C1SCC(=O)Nc2c1c(O)nn2C1CCOC(C)(C)C1` (stereo not shown), the “% Inhibition @ 10 uM” value is -0.45%. With `Cc1ccc(NC(=O)C(F)(F)F)cc1NC(=O)c1ccc(Cl)cc1Cl`, the “% Inhibition @ 10 uM” value was determined as 2.23%. In the case of `CCOc1cccc2cc(-c3nc(-c4nonc4N)no3)c(=O)oc12`, the “% Inhibition @ 10 uM” value came out at 1.4%.

`O=C(NCCc1ccccc1)c1ccc(CS(=O)(=O)c2c(Cl)cccc2Cl)o1`: the “% Inhibition @ 10 uM” value amounted to 2.37%.

Source of the values: paper PMC6919601, “Identification of Plasmodium dipeptidyl aminopeptidase allosteric inhibitors by high throughput screening” (PLoS ONE, 2019).
